No constants are given. Whether binding was seen depends on the method and setting. For part of these data: In cells and extracts the contact can be indirect. Some results given as binding are weak or reduced against the parent protein; the word gives no strength. Tags and fused reporters may be left off the sequences shown.
What was measured:
[1] = biological target: myc-GSK3β (glycogen synthase kinase 3 beta), wild type (human) (UniProt P49841); assay: co-IP; HEK293-HK2-HA cells transfected with a myc-tagged protein, 2 h in glucose-free medium with 10 mM glucose or 2-DG; immunoprecipitation with anti-myc, immunoblot with anti-HA or anti-PP2A; IP buffer 50 mM Tris-Cl pH 8.0, 0.5% NP-40, 150 mM NaCl
[2] = biological target: myc-tagged PRKAR1a (regulatory subunit 1a of protein kinase A) (human) (UniProt P10644); assay: as above
His-PRKAR1a [3] = biological target: His-PRKAR1a (UniProt P10644); assay: ELISA; His-PRKAR1a (50 nM) held on nickel-coated plates, then Myc-HK2 (32 nM, 2 h) or buffer, then GST-GSK3β (0-64 nM, 2 h); detected with anti-GST-HRP; G6P (0-1000 µM) added for the last 30 min in the inhibition panel; both purified
GST-GSK3β = GST-GSK3β (UniProt P49841); assay: ELISA; GST-GSK3β (50 nM) held on glutathione-coated 96-well plates overnight at 4 °C; Myc-HK2 0.25-64 nM, 2 h, room temperature; detected with anti-Myc-HRP; G6P (0-100 µM) added for the last 30 min in the inhibition panel; both purified
His-PRKAR1a [4] = biological target: His-PRKAR1a (UniProt P10644); assay: ELISA; His-PRKAR1α held on nickel-coated 8-well strips, Myc-HK2; disruptor (FMP-API-1 0-1000 µM, or RIAD) added; bound Myc-HK2 detected with anti-Myc-HRP; both purified
His-PRKAR1a [5] = biological target: His-PRKAR1a (UniProt P10644); assay: ELISA; His-PRKAR1a (50 nM) held on nickel-coated 96-well plates overnight at 4 °C; Myc-HK2 0.25-64 nM, 2 h, room temperature; detected with anti-Myc-HRP; G6P (0-100 µM) added for the last 30 min in the inhibition panel; both purified

By UniProt entry, the sequences of proteins in these tests, tags left out.
UniProt P49841: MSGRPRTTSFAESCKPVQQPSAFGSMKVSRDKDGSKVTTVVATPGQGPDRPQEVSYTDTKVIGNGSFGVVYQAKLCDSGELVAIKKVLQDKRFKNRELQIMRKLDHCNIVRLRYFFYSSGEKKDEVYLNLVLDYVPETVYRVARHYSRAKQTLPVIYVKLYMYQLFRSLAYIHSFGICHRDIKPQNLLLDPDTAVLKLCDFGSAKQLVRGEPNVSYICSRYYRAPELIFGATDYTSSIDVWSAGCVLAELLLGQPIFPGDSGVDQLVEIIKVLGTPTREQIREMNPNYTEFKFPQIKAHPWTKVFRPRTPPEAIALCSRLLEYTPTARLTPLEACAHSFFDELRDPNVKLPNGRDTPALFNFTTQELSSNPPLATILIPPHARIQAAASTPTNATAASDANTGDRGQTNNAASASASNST
UniProt P10644: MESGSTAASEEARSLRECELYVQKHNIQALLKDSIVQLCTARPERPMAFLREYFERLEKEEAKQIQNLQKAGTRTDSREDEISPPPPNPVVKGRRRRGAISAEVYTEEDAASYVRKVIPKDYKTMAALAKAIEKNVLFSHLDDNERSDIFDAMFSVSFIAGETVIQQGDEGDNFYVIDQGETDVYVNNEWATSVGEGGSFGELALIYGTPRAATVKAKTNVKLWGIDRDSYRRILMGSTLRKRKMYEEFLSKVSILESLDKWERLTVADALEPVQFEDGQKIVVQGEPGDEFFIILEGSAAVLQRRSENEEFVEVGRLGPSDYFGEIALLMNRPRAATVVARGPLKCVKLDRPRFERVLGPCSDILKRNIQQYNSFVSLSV

Measured: binding

B1: HA-tagged HK2 (rat hexokinase 2) stably expressed in HEK293 cells (enzyme, UniProt P27881 1-917)
chain: MIASHMIACLFTELNQNQVQKVDQFLYHMRLSDETLLEISRRFRKEMEKGLGATTHPTAAVKMLPTFVRSTPDGTEHGEFLALDLGGTNFRVLRVRVTDNGLQRVEMENQIYAIPEDIMRGSGTQLFDHIAECLANFMDKLQIKEKKLPLGFTFSFPCHQTKLDESFLVSWTKGFKSSGVEGRDVVDLIRKAIQRRGDFDIDIVAVVNDTVGTMMTCGYDDQNCEIGLIVGTGSNACYMEEMRHIDMVEGDEGRMCINMEWGAFGDDGTLNDIRTEFDREIDMGSLNPGKQLFEKMISGMYMGELVRLILVKMAKAELLFQGKLSPELLTTGSFETKDVSDIEEDKDGIEKAYQILMRLGLNPLQEDCVATHRICQIVSTRSASLCAATLAAVLWRIKENKGEERLRSTIGVDGSVYKKHPHFAKRLHKAVRRLVPDCDVRFLRSEDGSGKGAAMVTAVAYRLADQHRARQKTLESLKLSHEQLLEVKRRMKVEMEQGLSKETHAVAPVKMLPTYVCATPDGTEKGDFLALDLGGTNFRVLLVRVRNGKRRGVEMHNKIYSIPQEVMHGTGEELFDHIVQCIADFLEYMGMKGVSLPLGFTFSFPCQQNSLDQSILLKWTKGFKASGCEGEDVVTLLKEAIHRREEFDLDVVAVVNDTVGTMMTCGYEDPHCEVGLIVGTGSNACYMEEMRNVELVDGEEGRMCVNMEWGAFGDNGCLDDLRTVFDVAVDELSLNPGKQRFEKMISGMYLGEIVRNILIDFTKRGLLFRGRISERLKTRGIFETKFLSQIESDCLALLQVRAILRHLGLESTCDDSIIVKEVCTVVARRAAQLCGAGMAAVVDKIRENRGLDNLKVTVGVDGTLYKLHPHFAKVMHETVRDLAPKCDVSFLESEDGSGKGAALITAVACRIREAGQR
binds: [1] | [2]

B2: Myc-HK2 (enzyme, UniProt P52789 1-917)
chain: MIASHLLAYFFTELNHDQVQKVDQYLYHMRLSDETLLEISKRFRKEMEKGLGATTHPTAAVKMLPTFVRSTPDGTEHGEFLALDLGGTNFRVLWVKVTDNGLQKVEMENQIYAIPEDIMRGSGTQLFDHIAECLANFMDKLQIKDKKLPLGFTFSFPCHQTKLDESFLVSWTKGFKSSGVEGRDVVALIRKAIQRRGDFDIDIVAVVNDTVGTMMTCGYDDHNCEIGLIVGTGSNACYMEEMRHIDMVEGDEGRMCINMEWGAFGDDGSLNDIRTEFDQEIDMGSLNPGKQLFEKMISGMYMGELVRLILVKMAKEELLFGGKLSPELLNTGRFETKDISDIEGEKDGIRKAREVLMRLGLDPTQEDCVATHRICQIVSTRSASLCAATLAAVLQRIKENKGEERLRSTIGVDGSVYKKHPHFAKRLHKTVRRLVPGCDVRFLRSEDGSGKGAAMVTAVAYRLADQHRARQKTLEHLQLSHDQLLEVKRRMKVEMERGLSKETHASAPVKMLPTYVCATPDGTEKGDFLALDLGGTNFRVLLVRVRNGKWGGVEMHNKIYAIPQEVMHGTGDELFDHIVQCIADFLEYMGMKGVSLPLGFTFSFPCQQNSLDESILLKWTKGFKASGCEGEDVVTLLKEAIHRREEFDLDVVAVVNDTVGTMMTCGFEDPHCEVGLIVGTGSNACYMEEMRNVELVEGEEGRMCVNMEWGAFGDNGCLDDFRTEFDVAVDELSLNPGKQRFEKMISGMYLGEIVRNILIDFTKRGLLFRGRISERLKTRGIFETKFLSQIESDCLALLQVRAILQHLGLESTCDDSIIVKEVCTVVARRAAQLCGAGMAAVVDRIRENRGLDALKVTVGVDGTLYKLHPHFAKVMHETVKDLAPKCDVSFLQSEDGSGKGAALITAVACRIREAGQR
binds: His-PRKAR1a [3] | GST-GSK3β | His-PRKAR1a [4] | His-PRKAR1a [5]

Reference: paper PMC8850586
